Whole data set: some 33,000 sequences, median “E-score (-0.5 to 0.5)” near -0.054, cut for the highest 2% near 0.35. This is one part of the list.
target: T1, Stb5 (UniProt P38699); assay: PBM E-score (8-mer binding enrichment) (E-score (-0.5 to 0.5)); higher = stronger / more preferred TF binding; most listed sequences are background and not binding sites; details: protein concentration: 200 nM; construct: GST-full length
T1 sequence: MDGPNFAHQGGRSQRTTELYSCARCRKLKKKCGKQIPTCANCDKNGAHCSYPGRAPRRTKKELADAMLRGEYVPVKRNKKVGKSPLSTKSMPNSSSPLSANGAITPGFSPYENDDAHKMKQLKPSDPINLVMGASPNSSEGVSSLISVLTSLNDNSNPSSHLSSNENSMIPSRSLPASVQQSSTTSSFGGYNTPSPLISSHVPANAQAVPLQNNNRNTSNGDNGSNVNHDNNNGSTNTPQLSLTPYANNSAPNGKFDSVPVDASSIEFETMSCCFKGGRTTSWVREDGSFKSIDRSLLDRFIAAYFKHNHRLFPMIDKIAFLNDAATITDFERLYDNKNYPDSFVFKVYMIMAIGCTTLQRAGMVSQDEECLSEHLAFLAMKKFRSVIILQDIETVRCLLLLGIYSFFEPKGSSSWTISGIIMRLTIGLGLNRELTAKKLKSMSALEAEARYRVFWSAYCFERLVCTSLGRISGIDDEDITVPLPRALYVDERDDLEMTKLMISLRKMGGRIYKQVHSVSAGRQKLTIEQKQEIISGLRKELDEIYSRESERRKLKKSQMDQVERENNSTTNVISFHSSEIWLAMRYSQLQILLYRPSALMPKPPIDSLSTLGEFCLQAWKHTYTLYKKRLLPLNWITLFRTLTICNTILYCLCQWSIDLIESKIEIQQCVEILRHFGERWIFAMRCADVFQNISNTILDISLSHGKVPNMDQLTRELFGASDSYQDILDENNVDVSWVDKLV
Procedure: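 Universal 'all 10-mer' protein binding microarrays (Agilent AMADID 015681) probed with GST-tagged S. cerevisiae TFs (full-length or DBD) made by in vitro transcription/translation (PURExpress), about 100-200 nM. Bound TF was detected with fluorescent anti-GST. Each ungapped 8-mer (which stands for itself and its reverse complement) is scored by the PBM enrichment score (E-score), a modified Wilcoxon-Mann-Whitney statistic from -0.5 to +0.5, computed with the Universal PBM Analysis Suite. Scale: above 0.35 generally sequence-specific binding.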

In order of falling “PBM E-score” value:
1. GCGGTGAC  0.358
2. CTCCGGCA  0.332
3. CAACGCCG  0.318
4. ACCGTGTC  0.294
5. GCGGGGGA  0.261
6. GTTTTATA  0.254
7. GCGGGGCA  0.249
8. GCCCGTTA  0.228
9. AGGGTATA  0.217
10. CGTATAAA  0.206
11. CGGGGTAC  0.188
12. ACCTCGGG  0.173
13. GGGTCGAC  0.157
14. AAGGCACC  0.153
15. GGTCGCAA  0.143
16. ATAAAATC  0.131
17. CCGTGTAA  0.109
18. GATACGCC  0.102
19. CAGCGTAC  0.0758
20. GACAGATC  0.0557
21. CCATCACC  0.0449
22. CAAACTGC  0.0402
23. AAGCGCTA  0.0383
24. CGTGCGAG  0.0353
25. GCAATACA  0.0328
26. CTACGCGC  0.0303
27. CTCCTTTC  0.0201
28. TAAGGCCA  0.0104
29. TCAAATAA  0.00335
30. AATGTCGC  0.00121
31. CCAAGGCA  -0.00153
32. GAGGGTAA  -0.00858
33. ACATCGCA  -0.0203
34. AGTCACTA  -0.0227
35. AACTCCCT  -0.0261
36. ACTCAATG  -0.0318
37. GCCTATCA  -0.0338
38. TCACATAA  -0.0359
39. CAGCTTTC  -0.0389
40. GCCCCTAA  -0.0418
41. ATATGCTG  -0.0432
42. CGCATTAG  -0.0434
43. ATGTGATC  -0.0459
44. GACCCAAC  -0.0474
45. ATTTCTCA  -0.0486
46. CAAGATGC  -0.063
47. ATATAGGA  -0.0657
48. AAAACAAG  -0.0664
49. GCCCGAGC  -0.0669
50. CATCAGGC  -0.0697
51. AATTAACT  -0.0771
52. CCACAAGC  -0.0807
53. CAGTGTGG  -0.0854
54. ACAAAACC  -0.0967
55. ACACTTCC  -0.101
56. ACAATGTA  -0.112
57. ACTCAGTA  -0.113
58. CATTTATC  -0.117
59. ACGAGGTG  -0.119
60. GACTCAGC  -0.123
61. ACGATTCT  -0.124
62. ACCACGCT  -0.133
63. CTACTCAA  -0.135
64. CAAGTATC  -0.136
65. AACAGAAG  -0.144
66. ATCACTTG  -0.145
67. CGAGCAAG  -0.149
68. AAGCGTAT  -0.154
69. AGCACGTA  -0.156
70. ACTGTAGA  -0.164
71. AAAGTCAG  -0.167
72. ACAGTTCT  -0.169
73. GCGATTGA  -0.174
74. ATAGGTTG  -0.175
75. GAGAGTAA  -0.19
76. CTTACGAC  -0.197
77. CTCTACGC  -0.198
78. ATCGTTAC  -0.205
79. TCTGCGAA  -0.223
80. ACGCGTAC  -0.223
81. ACGTGTCA  -0.25
82. CAGGTCGC  -0.259
83. ATGGGTTC  -0.273
84. CCCCCATA  -0.283
85. GCTTCGTA  -0.294
86. AAGCTTTA  -0.324

— the supplement of paper PMC3334620
